Among all 48,000 compounds or so, about 120 (0.25%) were called active. Not shown: some 4% with an inconclusive outcome. The call rests on the fitted dose curve; in most records, active means well fitted activation curve with a large enough effect; inconclusive means small, poorly fitted or top-dose-only effect, or another doubt; inactive means no such curve, though single readings can be large or run the other way. This is one part of the list.
Test: Primary qHTS for Identification of Small Molecule Activators of Huntingtin-Antisense Promoter Activity; further: nearly all actives have a fitted effect of over 55% in size
Conditions: HEK293 HTT-AS promoter firefly luciferase reporter, 24 h; series mostly up to 57.5 µM; activity change, positive = activation: at the top concentration
Method in brief: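 Quantitative HTS used concentration series of up to 57.5 uM final on HEK293 luciferase reporter cells, 24 h at 37 degrees C. Readout was Dual-Glo firefly luminescence.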

Activity change, positive = activation, inactive:
Cc1ccc2c(c1)sc1nc(=O)n(-c3ccc(Cl)c(Cl)c3)c(=O)n12 -21.3%, Cc1ccc(NC(=O)C2CCN(C(=O)c3cnn(-c4ccccc4)c3-n3cccc3)CC2)cc1C -34.2%, O=C(CN1CCCN(Cc2cccc(F)c2)S1(=O)=O)Nc1ccc2c(c1)OCCO2 -7.38%, O=C(NCC(c1cccnc1)N1CCc2ccccc2C1)C(=O)Nc1ccc(F)cc1F (stereo not drawn) -0.795%, Cc1cccc(-c2nc(C)c(CCNC(=O)c3cccs3)s2)c1 17.2%, CC(C)c1ccc(NC(=O)CCNS(=O)(=O)c2ccc3c(c2)oc(=O)n3C)cc1 -8.44%, CCS(=O)(=O)c1ncc(Cl)c(C(=O)Nc2c(C(=O)c3ccc(C)cc3)oc3ccccc23)n1 4.46%, Cc1ccc(-n2ncc(C(=O)N3CCN(C(=O)c4ccco4)CC3)c2C2CCN(C(=O)OC(C)(C)C)CC2)cc1 -6.82%, COC(=O)c1nnn(-c2ccc(Cl)cc2)c1C(=O)OC -0.944%, O=C(CCS(=O)(=O)c1nc(-c2ccc3c(c2)OCO3)cc(C(F)(F)F)n1)Nc1ccc(F)cc1F 2.95%, O=C(CSc1oc(-c2ccc(F)cc2)nc1S(=O)(=O)c1ccc(Cl)cc1)c1ccccc1 -19.3%, O=C(c1ccc2c(c1)N(Cc1cccc(Cl)c1)C(=O)c1ccccc1S2(=O)=O)N1CCCCCC1 -33.7%, Cc1cccc(CCNC(=O)c2nn(C)c3c2CSc2ccccc2-3)c1 -16.8%, Cc1nn2c(=O)cc(COC(=O)C(c3ccccc3)c3ccccc3)nc2s1 -14.6%, Cc1ccc2c(c1)N(C(=O)N1CCC(C(=O)NCc3cccs3)CC1)CC(C)O2 (stereo not drawn) -25.9%, COc1ccc(CNC(=O)c2cc3c(=O)[nH]c4ccccc4c3n2C)c(OC)c1 -7.6%, COc1ccc(Cl)cc1NC(=O)NCc1noc2ccccc12 -16.6%, COc1ccc(CCNC(=O)CCCn2c(=O)c3ccccc3n(CC(=O)Nc3ccc(C)cc3Cl)c2=O)cc1OC -43.4%, Cc1cccc(N(CC(=O)NCCSc2ccc(Cl)cc2)S(C)(=O)=O)c1C -40.9%, Cc1ccc(-c2c(C(=O)N(C)Cc3ccccc3)oc(=O)c3ccccc23)cc1 -30%, CC(CC(=O)NCc1ccc(Cl)cc1Cl)CC1=NS(=O)(=O)c2ccccc2N1 (stereo not drawn) -29.9%, O=c1oc2c(O)c(O)cc3c(=O)oc4c(O)c(O)cc1c4c23, COc1ccc(CCNC(=O)c2cc(=O)c3c(C)cc(C)cc3o2)cc1OC 7.66% [at 11.5 µM, percent change from vehicle, -100% = no light], COc1cc2c(cc1OC)n(CC(=O)Nc1ccccc1)c(=O)n1nc(-c3ccccc3)nc21 -16.7%, COC(=O)c1ccc(NC(=O)C(=O)NCCc2sc3nc(-c4ccc(OC)cc4)nn3c2C)cc1 14.5%, O=C(CCn1c(=O)c2cccn2c2cccnc21)NCc1ccc(Cl)cc1 -3.5%, COc1ccccc1NC(=O)C1=C(C)Nc2c(C(=O)Nc3cccc(C)c3)cnn2C1c1ccccc1C (stereo not drawn) -9.1%, Cc1ccc(/C=C/c2nc3ccccc3n2S(=O)(=O)c2cccc(Cl)c2)cc1 31.1%, Cc1cccc(OC(=O)c2nc(SCc3ccccc3F)ncc2Cl)c1 -4.86%, CCOC(=O)c1ccc(NC(=O)Cn2cc(C(=O)c3cccs3)c3ccccc32)cc1 -23.9%, Cc1ccc(Nc2nc3c(S(=O)(=O)c4ccccc4)nnn3c3ccc(Cl)cc23)c(C)c1 -2.19%, COc1cc2nc(Nc3ccc(C)c(C)c3)nc(N)c2cc1OC -17.8%, CCCCOC(=O)c1c(C)oc2ccc(NS(=O)(=O)c3ccc(F)cc3C)cc12 -23.6%, CCOc1ccc(CN(C(=O)c2cc(=O)c3cc(Cl)ccc3o2)C2CCS(=O)(=O)C2)cc1 (stereo not drawn) -11%, CCc1ccc(CNc2ncnc3onc(-c4ccc(Cl)cc4)c23)cc1 -34.6%, COc1ccc(-c2cc(C(F)(F)F)n3nc(C(=O)Nc4sc5c(c4C(=O)OC(C)C)CCCC5)cc3n2)cc1OC -0.64%, NC(N)=NC(=O)c1nc(Cl)c(N)nc1N, COc1ccc(N2CCN(C(CNC(=O)c3cccc(OC)c3)c3cccnc3)CC2)cc1 (stereo not drawn) -22.8%, CCN(CC)C(=O)C1CCN(c2cc(C)nc3c(-c4ccc(OC)c(OC)c4)c(C)nn23)CC1 -5.8%, Cn1c(C(=O)N2CCCC(C(=O)N3CCN(c4ccccc4)CC3)C2)cc2sccc21 (stereo not drawn) -4.29%, CCCCNC(=O)CSC1=Nc2ccccc2C2=NC(CCC(=O)NCc3ccccc3OC)C(=O)N12 (stereo not drawn) 2.72%, CCc1ccc(NC(=O)CSc2cn(CC(=O)N3CCOCC3)c3ccccc23)cc1 13.9%, COc1ccc(NC(=O)Cn2c(=O)n(-c3ccc(C)c(C)c3)c(=O)c3c4c(sc32)CCCCC4)cc1Cl -12%, NS(=O)(=O)c1cc2c(cc1Cl)NC(C1CC3C=CC1C3)NS2(=O)=O (stereo not drawn) -3.55%, O=C1NS(=O)(=O)c2ccccc21 -1.59%, COc1ccc(CNC(=O)Cn2c(=O)n3nc(-c4cccc(F)c4)nc3c3ccccc32)cc1OC 1.1%, COc1ccc(CNC(=O)C2=Cc3cccc(OC)c3OC2)cc1OC -19.1%, COc1ccc(OC)c(NS(=O)(=O)c2ccc3c(c2)CCCN3C(=O)C2CCC2)c1 -13.6%, O=C(Nc1ccc(F)cc1F)c1cc(CN2CCOCC2)on1 11.1%, CCc1ccc(CNC(=O)c2ccc(-n3c(C)cc4c3CCC(C)C4)cc2)cc1 (stereo not drawn) 7.43%, COc1cccc(C(c2sc3nc(-c4ccco4)nn3c2O)N2CCC3(CC2)OCCO3)c1 (stereo not drawn) -6.48%, Cc1ccc(S(=O)(=O)Nc2ccc3c(c2)CCCN3C(=O)c2cccs2)cc1C -26.6%, Cc1cccc(NC(=O)C(Cc2ccccc2)N2Cc3ccccc3C2=O)c1C (stereo not drawn) -7.02%, CCc1nn(CC(=O)NCCN(CC(C)C)CC(C)C)c(=O)c2cc3sc(C)cc3n12 -12.1%, O=C(NCC(c1ccc2c(c1)OCO2)N1CCOCC1)C(=O)Nc1ccc(Cl)cc1 (stereo not drawn) -10.3%, Cc1ccccc1OCCSc1nnc(-c2ccc([N+](=O)[O-])cc2)o1 2.32%, CC(=O)CC(c1ccccc1)c1c(O)c2ccccc2oc1=O (stereo not drawn), Oc1cccc(-c2nc(-c3cccs3)c(-c3cccs3)[nH]2)c1 -21.5%, COc1ccccc1NC(=O)c1cc2c(n(-c3ccc(C)cc3)c1=O)CC(C)(C)CC2=O -6.74%, O=C(c1ccc2c(c1)N(Cc1cccc(Cl)c1)C(=O)c1ccccc1S2(=O)=O)N1CCN(Cc2ccccc2)CC1 -27.2%, CCc1cc2c(cc3c(=O)n(CC(=O)NC(C)C)nc(CC)n32)s1 3.68%, COc1ccc(CNC(=O)CSCc2ccc(C)cc2)c(OC)c1 -4.94%, CCC1CCCCN1CCCNC(=O)c1sc2nc(C)cc(C)c2c1-n1cccc1 (stereo not drawn) -3.68%, Cn1c(=O)oc2cc(S(=O)(=O)N3CCCC(C(=O)N4CCN(c5ccc(F)cc5)CC4)C3)ccc21 (stereo not drawn) -27.3%, O=C(NCCCN1CCN(c2ccccc2)CC1)c1ccc2nc(CCc3ccccc3)oc2c1 -22.5%, CC(Oc1ccc(Br)cc1)C(=O)N(Cc1nc(-c2ccccc2)no1)C(C)C (stereo not drawn) -50.2%, Cc1ccccc1OCC(=O)Nc1nnc(S(=O)(=O)N2CCCCCC2)s1 -28.6%, CCc1nn2c(=O)cc(COC(=O)c3ccccc3NC(=O)c3ccc(C(C)(C)C)cc3)nc2s1 17.4%, c1coc(CNc2ncnc3nc[nH]c23)c1 -8.99%, CSc1cccc(NC(=O)C2CCCN(S(=O)(=O)c3ccc4c(c3)CCCN4C(C)=O)C2)c1 (stereo not drawn) -38.7%, CN(C)CCCOC1(Cc2ccccc2)CCCCCC1 -9.44%, COc1ccc(-c2nc(CSc3nnc(C)n4c3cc3sccc34)c(C)o2)cc1 -15.5%, O=C(Nc1c(C(=O)N2CCN(c3ccccc3F)CC2)oc2ccccc12)c1ccc(Br)o1 -26.7%, Oc1ccccc1-c1nc2ccc(Cl)cn2c1Nc1ccc2c(c1)OCCO2 -11.4%, CCS(=O)(=O)N1CCc2cc(C(=O)Nc3cccc(NC(C)=O)c3)ccc21 -4.99%, COc1ccc(-c2ccc(=O)n(CC(=O)Nc3ccccc3C(F)(F)F)n2)cc1 -8.02%, Cc1ccc(C2c3[nH]c4ccccc4c3CCN2C(=O)CSc2ccccc2)cc1 (stereo not drawn) -31.2%, COc1cc(C2c3c(-c4ccccc4O)n[nH]c3C(=O)N2Cc2ccncc2)ccc1O (stereo not drawn) -8.01%, COc1c(C)c2c(c(O)c1CC=C(C)CCC(=O)OCCN1CCOCC1)C(=O)OC2 -26.2%, Cc1ccccc1NC(=O)c1ccccc1NC(=O)c1ccccc1Cl -4.77%, Cc1cc(OCCCSc2nc(-c3ccc(C(C)(C)C)cc3)nc3cc(=O)[nH]n23)ccc1Cl -15.2%, CCc1ccc(NC(=O)CSc2ccc3nnc(CCNS(=O)(=O)c4ccc(OC)cc4)n3n2)cc1 -17.6%, CCc1ccc(NC(=O)C2CCN(c3cc(C)nc4c(-c5ccc(Cl)cc5)c(C)nn34)CC2)cc1 18.9%, Cc1nc2ccc(S(=O)(=O)CCC(=O)Nc3ccc(F)cc3C)cc2s1 -10.2%, CC(C)c1ccc(NC(=O)CCCc2nc(-c3ccc(Cl)cc3)no2)cc1 -3.79%, COc1cc(Cl)c(NC(=O)C2CCN(S(=O)(=O)c3c(C)noc3/C=C/c3ccccc3F)CC2)c(OC)c1 19.1%, O=C(CCCn1c(=O)[nH]c2ccccc2c1=O)NCc1ccccc1Cl -4.68%, COc1cccc(NC(=O)CSc2nc3ccc(NC(=O)c4ccco4)cc3s2)c1 -9.31%, CCc1nn(CC(=O)NCCCOC)c(=O)c2cc3occc3n12 -5.32%, O=C(Cn1cnc2c(nc3n2CCCCC3)c1=O)Nc1ccc(F)cc1 3.6%, CCCN(CCC)CCCNC(=O)Cn1cnc2onc(-c3ccc(F)cc3)c2c1=O -3.75%, COc1ccc(S(=O)(=O)N2c3ccc(Cl)cc3[C@@](O)(c3ccccc3Cl)[C@H]2C(=O)N2CCC[C@@H]2C(N)=O)cc1OC -8.78%, O=C(c1ccc(F)c(F)c1Nc1ccc(I)cc1F)N1CC(O)([C@H]2CCCCN2)C1 -34.7%

— PubChem BioAssay AID1508624 (National Center for Advancing Translational Sciences (NCATS), 2021)
